We go through 100 compounds from paper PMC6919601, “Identification of Plasmodium dipeptidyl aminopeptidase allosteric inhibitors by high throughput screening” (PLoS ONE, 2019).

In all, about 110,000 compounds went through this assay and about 230 (0.21%) showed an effect of 50% or more. The list shows a part of the results.
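Further: 30 min substrate incubation versus DMSO and 10 µM JCP410 controls.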

For this experiment, the target named is DPAP1 (Plasmodium falciparum, UniProt Q8IIJ9). Briefly: primary screen, percent inhibition; read by cleavage of a fluorogenic dipeptide substrate; higher = more effect of the substance. Also noted: species or system P. falciparum D10 trophozoite lysates; single well.
Chain of DPAP1 (Q8IIJ9 whole entry, looked up): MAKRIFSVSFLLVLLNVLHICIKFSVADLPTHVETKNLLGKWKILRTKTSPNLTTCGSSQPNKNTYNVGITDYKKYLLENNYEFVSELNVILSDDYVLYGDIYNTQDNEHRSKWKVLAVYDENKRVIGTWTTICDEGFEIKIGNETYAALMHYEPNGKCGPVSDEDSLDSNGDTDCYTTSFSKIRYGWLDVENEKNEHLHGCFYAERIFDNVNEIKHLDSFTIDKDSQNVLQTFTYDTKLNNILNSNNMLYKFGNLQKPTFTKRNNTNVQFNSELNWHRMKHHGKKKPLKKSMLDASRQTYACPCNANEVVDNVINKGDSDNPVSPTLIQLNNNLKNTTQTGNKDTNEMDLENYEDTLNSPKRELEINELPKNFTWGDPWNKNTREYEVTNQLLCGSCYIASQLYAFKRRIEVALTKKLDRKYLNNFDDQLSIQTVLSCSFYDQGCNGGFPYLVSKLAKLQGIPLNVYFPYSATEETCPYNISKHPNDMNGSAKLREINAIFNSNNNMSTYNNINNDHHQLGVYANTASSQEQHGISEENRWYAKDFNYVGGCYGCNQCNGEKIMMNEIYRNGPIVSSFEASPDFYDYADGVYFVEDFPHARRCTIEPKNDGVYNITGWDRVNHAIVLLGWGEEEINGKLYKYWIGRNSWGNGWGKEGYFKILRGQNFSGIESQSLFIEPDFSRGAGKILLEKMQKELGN
Regarding `CCCOc1ccc(C2C(C#N)=C(N)OC3=C2C(=O)CCC3)cc1OCC` (stereo not shown), the “% Inhibition @ 10 uM” value was -2.68%. For `CC[C@@H](C)[C@H](NC(=O)c1cccc(CN)c1)C(=O)N[C@@H](CCc1ccccc1)C(=O)COc1ccccc1` the value was -3.97%. For `CCOc1ccc(Nc2nc(-c3cccs3)cs2)cc1` the value was -1.37%. As for `COc1ccc(-c2cc3n(c2)CCn2c(C)ccc2-3)cc1`, the “% Inhibition @ 10 uM” value is recorded as 14.4%. The value for `Clc1ccnnc1N1CCCC2CCCCC21` (stereo not shown) was 4.47%; that for `COc1ccc(Cn2c(C(=O)O)c(CNCCc3ccc(OC)c(OC)c3)c3ccccc32)cc1` was 8.65%. For `CCO/C(O)=C1/C(C)=Nc2ncnn2C1c1cccs1` (stereo not shown) the value was -3.37%; for `COc1ccc(NC(=O)c2cc(Cl)c(Cl)c(S(=O)(=O)N3CCOCC3)c2)cc1`, -2.83%.

As to `C(CN1CCOCC1)NC1C2CC3CC(C2)CC1C3` (stereo not shown), the “% Inhibition @ 10 uM” value is on record as -0.414%. The value for `CN1C(=O)C(C2c3c(n(C)c(=O)n(C)c3=O)Oc3ccc4ccccc4c32)C(=O)N(C)C1=O` (stereo not shown) was 4.12%; that for `COc1ccc(NC(=O)CN(c2ccc(C)c(Cl)c2)S(C)(=O)=O)cc1` was -5.67%. The value for `Oc1c2c(nc3nnnn13)-c1ccccc1CC21CCCCC1` was 1.24%; that for `Cn1c(=O)n(Cc2ccccc2)c(=O)c2c1nc1n2CCS1` was 2.41%; that for `Cc1ccc(CS(=O)Cc2ccc(C(=O)NC3CCCC(C)C3C)o2)cc1` (stereo not shown) was 3.24%. On to `CC1CC(C)CN(CCCNC(=O)CCCn2ncn3c(cc4occc43)c2=O)C1` (stereo not shown), for which the “% Inhibition @ 10 uM” value is recorded as 6.31%. Regarding `CC1(C)CC2CC(C)(CN2C(=O)CN2C(=O)c3ccccc3C2=O)C1` (stereo not shown), the “% Inhibition @ 10 uM” value was -1.46%. As to `O=C(CN(Cc1ccccc1)S(=O)(=O)c1ccc(F)cc1)Nc1cccc(C(F)(F)F)c1`, the “% Inhibition @ 10 uM” value was -7.58%. Take `O=C(Nc1ccc(Cl)cc1[N+](=O)[O-])c1ccc([N+](=O)[O-])cc1`: the “% Inhibition @ 10 uM” value worked out at 0.247%. For `O=C(Nc1ccc(Cl)cc1C(=O)N1CCCCC1CCO)c1ccc(Cl)cc1Cl` (stereo not shown) the value was 2.17%. As to `CC(CN1CCOCC1)c1ccccc1` (stereo not shown), the “% Inhibition @ 10 uM” value was 0.0792%. The value for `Cc1cccc(C(=O)N(C)c2ccccc2)c1` was -4.4%.

For `CCc1nc(O)c2c(n1)-c1ccccc1CC21CCCC1`, the “% Inhibition @ 10 uM” value was -0.267%.

In the case of `O=C(Nc1nc(O)nc(/C=C/c2ccccc2)n1)NS(=O)(=O)c1ccccc1Cl`, the “% Inhibition @ 10 uM” value is -3.48%.

For the compound `CCCC1CCc2c(sc(NC(=O)C3CC4CCC3C4)c2C(N)=O)C1` (stereo not shown), the “% Inhibition @ 10 uM” value is 6.65%. The value for `O=C(NCCC1=CCCCC1)c1cc2c(s1)-c1ccccc1OC2` was 1.89%; that for `COc1ccc(C2=NCCc3cc(OC)c(OC)cc32)cc1` was 1.83%; that for `COc1ccccc1CN1COc2c(cc3c(oc(=O)c4ccccc43)c2C)C1` was -2.57%.

Consider `COc1cccc(C(=O)N2CCN(c3cccc(C)c3C)CC2)c1`, for which the “% Inhibition @ 10 uM” value is -8.06%. In the case of `Cn1c(NCc2ccc(C(F)(F)F)cc2)nc2ccccc21`, the “% Inhibition @ 10 uM” value amounted to 1.64%. Turning to `Cc1ccccc1C(=O)Nc1ccc(-c2cn3cccnc3n2)cc1`, the “% Inhibition @ 10 uM” value worked out at 2.93%. For `Cc1ccccc1C(=O)Nc1c(C(=O)N2CCC(C)CC2)cnn1-c1ccccc1` the value was -5.9%; for `COc1cc(C2CC(=O)C=C(O)C2)cc(OC)c1OC` (stereo not shown), 2.09%; for `O=C(Nc1ccc2c(c1)C(=O)N(C1CCCCC1)C2=O)c1ccc(Br)o1`, 9.19%.

Take `c1ccc2c(c1)N=C1CCCCC1C1(CCCCC1)N2` (stereo not shown): the “% Inhibition @ 10 uM” value was -0.582%. The value for `COc1ccc(OCC2c3cc(OC)c(OC)cc3CCN2C(=O)C(C)(C)C)cc1` (stereo not shown) was -0.587%; that for `COC(=O)[C@H](Cc1ccccc1)NC(=O)O[C@@H](CC(C)C)C(=O)NCC#N` was -7.36%; that for `COc1ccc2c(CNCc3ccc(C)cc3)c(C(=O)O)n(Cc3ccc(F)cc3Cl)c2c1` was 6.94%. The value for `COc1ccc(S(=O)(=O)NCCSCc2ccc(Cl)cc2Cl)cc1` was 0.726%. The value for `O=C(Nc1cccc(F)c1)Nc1cccc(Cl)c1` was -0.0404%. Take `C#CC(C)(CC)NC(=O)Cn1nnc(-c2ccccc2C)n1` (stereo not shown): the “% Inhibition @ 10 uM” value is reported as 2.72%.

With `Cc1nc(Cl)c(C#N)c2c1COC(C)(C)C2`, the “% Inhibition @ 10 uM” value is listed as -1.1%. The value for `CC1CCN(S(=O)(=O)c2ccc3c(ccn3CCC(=O)NCC3CCCO3)c2)CC1` (stereo not shown) was 2.96%; that for `Cc1ccc2nc3c(O)n(CC(=O)N4CCN(C5CCCCC5)CC4)ncc-3c2c1` was 2.42%; that for `O=S(=O)(c1ccc(-c2ccc(O)nn2)s1)N1CCN(CCOc2ccc(Cl)cc2)CC1` was 6.65%. `CCCNC(=O)NS(=O)(=O)c1cnccc1Sc1ccc(Cl)cc1`: the “% Inhibition @ 10 uM” value is reported as -3.92%.

As to `COc1ccc(-c2nc(CS(=O)CC(=O)NC3CCCc4ccccc43)c(C)o2)cc1OC` (stereo not shown), the “% Inhibition @ 10 uM” value is on record as -6.64%. For `COc1ccc(CCN2C(=O)CN(C3CCCCCC3)C(=O)C2c2ccccc2F)cc1OC` (stereo not shown), the “% Inhibition @ 10 uM” value is reported as -2.26%. The value for `COc1ccc(-c2nc3c(n2O)CCCC3=O)cc1` was -5.11%. For `CCn1c(C)cc(/C=C2\NC(=O)N(CC(=O)Nc3ccc(F)cc3)C2=O)c1C`, the “% Inhibition @ 10 uM” value is reported as 0.528%.

Take `COc1ccc(CCNC(=O)c2ccc(N(C)S(C)(=O)=O)cc2)cc1`: the “% Inhibition @ 10 uM” value was found to be 3.49%. For `Cc1cccc(OCC(=O)Nc2ccccc2C(=O)Nc2ccccc2)c1` the value was -5.95%; for `Cc1ccccc1COc1ccc(C2C(C#N)=C(N)Oc3[nH]nc(C)c32)cc1` (stereo not shown), -1.64%. On to `Cc1ccnc(NC(=O)c2ccc(-c3ccccc3)s2)c1`, for which the “% Inhibition @ 10 uM” value came out at 4.4%. The value for `COc1cc(C(=O)Nc2nc3ccc(S(C)(=O)=O)cc3s2)cc(OC)c1OC` was -2.53%; that for `CC(C)CC(C(=O)NCCc1ccc(Cl)cc1)N1Cc2ccccc2C1=O` (stereo not shown) was -1.31%; that for `Cc1ccccc1S(=O)(=O)Cc1ccc(C(=O)NCCN(C)Cc2ccccc2)o1` was 0.244%.

Regarding `O=C(Cn1cc2c(n1)CCCCC2)NCc1ccccn1`, the “% Inhibition @ 10 uM” value is 1.8%.

Regarding `CSc1nc(N)c(C#N)c(-c2ccccc2)c1C#N`, the “% Inhibition @ 10 uM” value stood at 2.65%. For `Cc1ccc(S(=O)(=O)N2CCN(C(=O)CSc3nnc(N)s3)C2)cc1` the value was -7.33%; for `CCOC(=O)C1=CN(Cc2ccc(F)cc2)C=C(C(=O)OCC)C1c1ccc(C(F)(F)F)cc1`, 4.99%. For `CC(C)C[C@H](NC(=O)c1cc(Cl)nc(Cl)c1)C(=O)NCC#N` the value was 2.87%; for `O=S(=O)(/N=C/c1ccccc1)c1cccs1`, 1.67%; for `CCOc1cc(/C=C2/C(=N)N3OC(C)=CC3=NC2=O)ccc1OCCOc1ccccc1C`, -1.43%.

Regarding `Cc1c2cnn(CC(=O)N3CCN(c4ccccn4)CC3)c(=O)c2c(C)n1Cc1ccccc1`, the “% Inhibition @ 10 uM” value was 1.22%.

On to `CC(NC(=O)C1CCN(S(=O)(=O)c2ccccc2)CC1)c1ccccc1` (stereo not shown), for which the “% Inhibition @ 10 uM” value was -7.56%. The value for `CCC1(Cc2ccccc2)NC(=O)c2ccccc2O1` (stereo not shown) was -5.94%. The value for `CCOC(=O)N1CCN(CCC(=O)Nc2cccc(Br)c2)CC1` was 2.92%; that for `OCCNCc1ccc(OCc2ccc(Cl)cc2Cl)cc1` was -6.02%.

In the case of `O=C(CN1C(=O)c2ccccc2S1(=O)=O)Nc1ccc(F)cc1`, the “% Inhibition @ 10 uM” value is given as -6.36%. The value for `CC(C)Oc1ccc(CNC(=O)c2ccc3nc(N4CCCCC4)sc3c2)cc1` was 1.72%; that for `CCOc1ccccc1CN1CCC(N2CCCCC2)CC1` was 4.55%; that for `O=C(Nc1ccccc1C(=O)Nc1ccccc1)c1cccs1` was 4.05%. `Cc1cccc(Oc2cc(-n3ncc(C#N)c3N)ncn2)c1`: the “% Inhibition @ 10 uM” value was -9.39%. For `O=C(CSCC(=O)Nc1ccccc1F)Nc1ccc(Cl)cc1` the value was -5.81%; for `Cc1ccc(-c2nc3sccn3c2C=O)cc1`, -4.35%; for `CCOC(=O)C1=C(CS(=O)(=O)c2ccc(C)cc2)NC(=O)NC1c1ccc(OCC)c(OC)c1` (stereo not shown), -4.17%.

Consider `O=C(c1ccc(CS(=O)Cc2cccc(Cl)c2)o1)N1CCN(Cc2ccccc2)CC1` (stereo not shown), for which the “% Inhibition @ 10 uM” value was 0.401%.

`Cc1cccc(-[n+]2c(=O)c(Cc3ccccc3)c(O)n3nc(C)ccc32)c1`: the “% Inhibition @ 10 uM” value was -0.496%. For `COc1ccc(-c2nc3ccc4ccccc4c3c3c2CCC3)cc1` the value was -1.97%; for `CCOC(=O)C1CCCN(Cc2cccc(Cl)c2Cl)C1` (stereo not shown), 1.48%.

Take `CCc1cc(CC)c(CO)c(CC)c1CO`: the “% Inhibition @ 10 uM” value turned out to be 3.42%. Consider `N#Cc1ccc(CN2CCc3ccccc3C2)cc1`, for which the “% Inhibition @ 10 uM” value is reported as -0.0709%. With `O=C(O)CCC(=O)N(Cc1ccccc1)Cc1cn(-c2ccccc2)nc1-c1ccc2c(c1)OCCO2`, the “% Inhibition @ 10 uM” value was -5.41%. For the compound `CCc1c(C)sc(NC(=O)C2CCCO2)c1C#N` (stereo not shown), the “% Inhibition @ 10 uM” value is given as 0.674%. The value for `O=C(O)CNc1ncnc2[nH]cnc12` was -1.06%; that for `CCN1C(=O)C(CC(=O)Nc2ccccc2Br)S/C1=N\c1cccc(OC)c1` (stereo not shown) was 4.67%. For `CCOc1ccc(-n2c(C)cc(/C=C3/C(=N)N4C(=NC3=O)SN=C4S(=O)(=O)CC)c2C)cc1` the value was -1.58%; for `CCNc1nc(OC)nc(N2CCC(Cc3ccccc3)CC2)n1`, -10.8%. For `CC(C)CC(NC(=O)c1ccc(NC(=O)Nc2ccccn2)cc1)C(=O)NCC#N` (stereo not shown) the value was -5.64%.

As to `c1ccn(-c2ncnc3sc4c(c23)CCCC4)c1`, the “% Inhibition @ 10 uM” value was determined as 1.08%. The value for `COC(=O)C1=C(C)NC(=O)NC1c1cccc(Cl)c1` (stereo not shown) was -3.14%. The value for `CCOC(=O)c1c(NC(=O)CSc2nc(CC)c(C)cc2C#N)sc2c1CCC2` was 1.97%; that for `Cc1oc(-c2ccc(Cl)cc2)nc1CS(=O)CC(=O)NCCCN1CCOCC1` (stereo not shown) was 0.689%. For `Cc1cc(Oc2nnnn2-c2ccccc2)ccc1Cl` the value was -0.834%. With `N#CC(NC(=O)[C@H](CC1CCCCC1)NC(=O)c1ccccc1)c1cccs1` (stereo partly shown), the “% Inhibition @ 10 uM” value was -5.21%. For `Cc1ccc(C2CC(=O)n3c(nc4ccccc43)N2)cc1` (stereo not shown), the “% Inhibition @ 10 uM” value stood at 0.0289%. For `CCCOc1ccc(Cn2c(CO)nc3ccccc32)cc1` the value was -0.0626%; for `O=C(CCN1CCOCC1)c1ccccc1`, -2.55%. Turning to `COc1cc(CNCc2ccc(C)cc2)cc(OC)c1`, the “% Inhibition @ 10 uM” value is 2.76%. For `O=C(NCCCc1ccccc1)c1ccc(CS(=O)Cc2ccc(Cl)cc2)o1` (stereo not shown) the value was -5.12%.
